According to the RNAGym collection of RNA variant scans (doi:10.1073/pnas.2313332121):
This sample is rich in variants without activity.

B1: TPR 5TU (parent)
chain: GGAUCUUCUCGAUCUAACAAAAAAGACAAAUCUGCCACAAAGCUUGAGAGCAUCUUCGGAUGCAGAGGCGGCAGCCUUCGGUGGCGCGAUAGCGCCAACGUUCUCAACUAUGACACGCAAAACGCGUGCUCCGUUGAAUGGAGUUUAUCAUG

Variants of: B1
Assay: polymerase ribozyme fitness, log enrichment relative to wild type (log ratio); higher = more active; in vitro selection for triplet polymerase activity
In short: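 Fitness compares each genotype's enrichment to that of the wild type on a logarithmic scale, averaging replicates with inverse-variance weights. The logarithm is base 2. Enrichment came from Illumina sequencing of input and output libraries after one triplicate round of in vitro selection, which included frozen incubation at −7 °C, of PCR-built, transcribed mutant libraries of each subunit of a heterodimeric triplet polymerase ribozyme. Only genotypes with ≥10 input reads and ≥1 read per output were kept.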

First: GGAUCUUUUCGAUCUAACAAAAAAGACAAAUCUGCCACAAAGCUUGAGAGCAUCUUCGGAUGCAGAGGCGGCAGCCUUCGCUGGCGCGAUAGCGCCAACGUUCUCAACUAUGACACGCAAAACGCGUGCUCCGUUGAAUGGAGUUUAUCAUG [C8U G81C]
Second: GGAUCUUUUCGAUCUAACAAAAAAGACAAAUCUGCCACAAAGCUUGAUAGCAUCUUCGGAUGCAGAGGCGGCAGCCUUCGGUGGAGCGAUAGCGCCAACGUUGUCAACUAUGACACGCAAAACGCGUGCUCCGUUGAAUGGAGGUUACCAUG [C8U G48U C85A C103G U144G U148C]
The “polymerase ribozyme fitness (log ratio)” value of the first is higher: -3.94 for the first, at most -4.2 for the second.

GGAUCUUCACGAUCUAACAAAAAAGACAAAUCUGCCACUAAGCUUGAGAGCAUCUUCGGAUGCAGAGGCGGCAGCCUUCGGUGGCGCGAUAGCGCCAACGUUCUCAACUAUGACACGCAAAACGCGUGCUCCGUUGAAUGGAGUUUAUCAUG [U9A A39U] and GGAUCUUCACGAUCUAACUAAUAAGACAAAUCUGCCACAAAGCUUGAGAGCAUAUUCGGAUGCAUAGGCGGCAGCCUUCGGUGGCGCGAUAGCACCAACGUUCUCAACUAUGACACGCAAAACGCAUGCUCCGUUGAAUGGAGUUUGUCAUG [U9A A19U A22U C54A G65U G94A G126A A147G] cannot be ordered by “polymerase ribozyme fitness (log ratio)” value: at most -4.2 for the first, at most -4.2 for the second.

GGAUCUUUGCGAUCUAACAAAAAAGACAAAUCUGCCACAUCGCUUGAGAGCAUCUUCGGAUGCAGAGGCGGCAGCCUUCGGUCGCGCGAUAGCGCCAACGUUCUCAACUAUGACACGCAAAACGCGUGCUCCGUGGAAUGGAGUUCAUCUUG [C8U U9G A40U A41C G83C U135G U146C A150U] and GGAUCUUUUCGAUCUAACAAAAAAGACAAAUCUGCCACAAAGCUUGAGAGCAACUUCGGAUGCAGAGGCGGCAGCCUUCGGUGGAGCGAUAGCGCCAACGUUCUCAACUAUGACACGCAAAACGCGUGCUCUGUUGAAUGGAGUUUAUCAUG [C8U U53A C85A C132U] cannot be ordered by “polymerase ribozyme fitness (log ratio)” value: at most -4.2 for the first, at most -4.2 for the second.

GGAUCUUCACGAUCUAACAAAAAGGACAAAUCUGCCACAGAGCUUGAGAGCAUCUUCGGAUGCAGAGGCGGCAGCCUUCGGUGGCGCGAUAGCGCCAACGUUCUUAACUAGGACACGCAAAACGCGUGCUCCGUUGAACGGAGCUUAUCCUG [U9A A24G A40G C105U U111G U139C U144C A150C] and GGAUCUUUACGCUCUAACAAAAAAGUCAAAUCUGCCACAAAGCUUGAGAGCAUCUUCGGAUGCAGAGGCGGCAGCCUUCGGUGGCGCGAUAGCGCCAACGUUCUCAACUAUGACACGCAAAACGCGUGCUCCGUUGAAUGGAGUUUAUCAUG [C8U U9A A12C A26U] cannot be ordered by “polymerase ribozyme fitness (log ratio)” value: at most -4.2 for the first, at most -4.2 for the second.

GGAUCUUUUCGAUCUAACAAAAAAGACAAAUCUGCCACAAAGCUUGAGAGCAUCUUCAGAUGCAGAGGCGGCUGCCUUCGGUGGCGCGAUGGCGCCAACGUUCUCAACUAUGCCACGCAAAACGCGUGCUCCGUUGAAUGGAGUAUAUCAUG [C8U G58A A73U A91G A113C U145A] and GGAUCUUUUCGAUCUAACAAAAAAGACAAAUCUGCCACAAAGCUUGAGAGCAUCUACGGAUGCAGAGGCGGGAGCCUUCGGUGGGGCGAUAGCGCCAACGUUCUCAACUAUGACACGCAAAACGCGUGCUCCGUUGAAUGGAGUUUAUCAUG [C8U U56A C72G C85G] cannot be ordered by “polymerase ribozyme fitness (log ratio)” value: at most -4.2 for the first, at most -4.2 for the second.

GGAUCUUUUCGAGCUAACAUAAAAGACAAAUCUGCCACAAAGCUUGAGAGCAUCUUCGGAUUCAGAGGCGGCAGACAUCGGUGGCGCGAUAGCACGAACGUUCUCAACUUUCACACGCAAAACGCGUGCUCCGUUGAAUGGAGUUUAUCAUG [C8U U13G A20U G62U C75A U77A G94A C96G A110U G112C] and GGAUCUUCACGAUCUAACAAAAAAGACAAAUCUGCCCCAAAGCUUGAGAGCAUCUUCGGAUGCAGAGGCGGCAGCCUUCGGUGGCGCGAUAGCGUCAACGUUCUCAACUAUGACACGCAAAACGCGUGCUCCGUUGAAUGGAGUUUAUCAUG [U9A A37C C95U] cannot be ordered by “polymerase ribozyme fitness (log ratio)” value: at most -4.2 for the first, at most -4.2 for the second.

GGAUCUUUUCGAUCUAACAAAAAAGACAAACCUGCCACAAAGCUUGAGAGCAUCUUCGGAUGCAGAGGCGGCAGCCUUCGGUGGCGCGACAGUGCCAACGUUCUCAACUAUGACACGCAAAACGCGUGCUCCGUUGAAUGGAGUUUAUCCUG [C8U U31C U90C C93U A150C] and GGAUCUUUUCGAUCGAACAAAAAAGACAAAUCUGCCACAAAGCUUGAGGGCAUCUUCGAGUGCAGAGGCAGCAGCCUUCGGUGGCCCGAUAGUGCCAACGUUCUCGACUAUGACACGCAAAACGCGUGCUCCGUCGAAUGGAGUUUAUCAUG [C8U U15G A49G G59A A60G G70A G86C C93U A106G U135C] cannot be ordered by “polymerase ribozyme fitness (log ratio)” value: at most -4.2 for the first, at most -4.2 for the second.

GGAUCUUUCCGAUCUAACAAAAAAGACUAAUCUGCCACAAAGCUUGUGAGCAUCUUCGGAUGCAGAGGCGGCAGCCUUCGGUGGCGCGAUAGCGCCAACGUGCUCAACUAUGACACGCAAAACGCGUGCUCCGUUGAAUGGAGUUUAUCAUG [C8U U9C A28U A47U U102G] and GGAUCUUUUCGAUCUAACAAAAAAGACAAAUCGGCCACAAAGCUUGAGCCCAUCUUCGGAUGCAGAGGCGGCAGCCUUCGGUGGCGCGAUAGCACCUACGUUCUCAACUAUGACACGGAACACGCGUGCUCCGUUGAAUGGAGUUUAUCAUG [C8U U33G A49C G50C G94A A97U C118G A121C] cannot be ordered by “polymerase ribozyme fitness (log ratio)” value: at most -4.2 for the first, at most -4.2 for the second.

Compared with GGAUCUUUUCGAUCAAACAAAAAAGACAAAUCUGCCACAAAGCUUGAGAGCAUCUUCUGAUGCAGAGGAGGCAGCCUUCGGUGGAGCGAUAGCGCCAACGUUCUCAACUAUGACACGCAAAACCCGUGCUCCGUUGAAUGGAGUUUAUCAUG [C8U U15A G58U C69A C85A G124C], GGAUCUUUUCGAUCUAACAAAAAAGACAAAUCAGCCCCAAAGCUUGAGAACAUCUUCGGUUGCAGAGGCGGAAGCCUUCGGUGGCACGAAAGCGCCAACGUUCUCAACUAUGACACGCAAAACGCGUGCUCCGUUGAGUGGAGUUUAUCAGG [C8U U33A A37C G50A A60U C72A G86A U90A A138G U151G] is lower in “polymerase ribozyme fitness (log ratio)” value: -3.61 for the first, at most -4.2 for the second.

With GGAUCUUUUCGAUCGAGCAAAAAAGACAAGUCUGCCACAAAGCGUGAGAGCAUCUUCGGAUGCAGAGGCGGCAGCAUUCGGUGGCGAGAUAGCGCCAACGUUCUCAACUAUGACACGCAAAACGCGUGCUCCGUUGAAUGGAGUUUAUCAUG [C8U U15G A17G A30G U44G C76A C87A] the “polymerase ribozyme fitness (log ratio)” value was at most -4.2.
